The record followed here is the supplement of paper PMC11417369.

± gives the standard deviation of the averaged measurements. The list shows a part of the results.

This experiment has as its system PfAP2-LT AP2 domain (GST-tagged). Nature of the experiment: gcPBM binding intensity (ln(normalized median fluorescence intensity)); higher = stronger DNA binding. In a few lines: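 Binding intensity is the highest Masliner-normalised natural-log median intensity over replicate spots in either probe orientation. To obtain it, GST-tagged P. falciparum DNA-binding domains made in E. coli were incubated for 1 h on an Agilent 4 × 180k array of primer-extended double-stranded 36-bp intergenic genomic probes plus negative controls. Detection used Alexa488 anti-GST antibody with scanning at 488 nm.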
As to “ATAAAAATAACATATAAACACACATATATATATATA [CACACA_site9267]”, the “gcPBM binding intensity (ln)” value was found to be 9.565 ± 0.078. Turning to “CAAGCACCCAGACACACACACACACCCACACCCACA [CACACA_site369]”, the “gcPBM binding intensity (ln)” value turned out to be 10.1 ± 0.47. Take “GGAATATTTATACATACACACATATATTTATTTATA [CACACA_site6883]”: the “gcPBM binding intensity (ln)” value amounted to 8.91 ± 0.38. For “AGTCATTAAATATAATGTACATGGAAAAACAGCTGA [XGTACX_site7944]”, the “gcPBM binding intensity (ln)” value is 8.97 ± 0.4.

Regarding “AAAAAAATCACATAATATACTTTATTTTATTTTGTA [GTGCAC_negctrl_site562]”, the “gcPBM binding intensity (ln)” value is 8.41 ± 0.59. As for “ACAAAGAACTATAATACACACAAGAATATATTGGAT [CACACA_site7771]”, the “gcPBM binding intensity (ln)” value stood at 9.3 ± 0.39. To “TTATAAGATTTATGTACACACATATACACCCCTCTA [CACACA_site4562]” belongs 9.26 ± 0.33; to “GTTATAGAAGCATTCACACACACACCGACATACACA [CACACA_site4914]”, 9.87 ± 0.26. On to “ATATATATATAAATATAAATATATATATATATATAT [CACACA_negctrl_site1685]”, for which the “gcPBM binding intensity (ln)” value was 9.02 ± 0.23. Regarding “AATAATTAAATATATTTATAACAGGAAAATATTTAT [XGTACX_negctrl_site175]”, the “gcPBM binding intensity (ln)” value stood at 8.52 ± 0.41.

ATAAATTATATTCAAGTGCATGTAACTTATTATTAT: the “gcPBM binding intensity (ln)” value came out at 8.73 ± 0.42. With “AAAAAAAAAAATTCCAGTACACACAATAATACTAAA [XGTACX_site5930]”, the “gcPBM binding intensity (ln)” value was 8.98 ± 0.35. For “TAAATAATCATAGTTCTACACACCTATATTGCAAAA [CACACA_site8190]”, the “gcPBM binding intensity (ln)” value is 8.74 ± 0.36. “ATATATATAATATGATGTACTATTTTGATAAAAAAT [XGTACX_site3975]”: the “gcPBM binding intensity (ln)” value is 8.62 ± 0.46. “AATATATTGCACCATTGGACCTGAATAATTCTTCCA [CACACA_negctrl_site1071]”: the “gcPBM binding intensity (ln)” value was 8.81 ± 0.38. On to “GTAAGAAACGGACACACACACATATATATATATATA [CACACA_site4593]”, for which the “gcPBM binding intensity (ln)” value is 10.39 ± 0.05.

On to “TAGTAAGAATTACTGTGTACTAAAATATTAAAAAGT [XGTACX_site2578]”, for which the “gcPBM binding intensity (ln)” value was determined as 8.82 ± 0.57. In the case of “AAATAGTCTTCTCTTGCATGTAACAAATATATATAT [TGCATGCA_site428]”, the “gcPBM binding intensity (ln)” value turned out to be 8.74 ± 0.32. On to “AATAAAAACAAACAAAAAAACAAATAAATAAATAAA [CACACA_negctrl_site483]”, for which the “gcPBM binding intensity (ln)” value was 8.79 ± 0.45.

For “ACATATAAGTTATATACACACAATAATATGTAAATA [CACACA_site6766]”, the “gcPBM binding intensity (ln)” value worked out at 9.12 ± 0.38. Turning to “ATATTTTTTATAAAATGTACTTATTATTAGAATATA [XGTACX_site2460]”, the “gcPBM binding intensity (ln)” value worked out at 8.33 ± 0.38. With “TACAAAATATGGTAATAAAGTAGTTACATGAATTGG [XGTACX_negctrl_site522]”, the “gcPBM binding intensity (ln)” value is 8.8 ± 0.42.

In the case of “TATTATAATATATTTGTGCACATAATACCTCCGCTA [GTGCAC_site9570]”, the “gcPBM binding intensity (ln)” value was found to be 8.97 ± 0.5. To AATATATACATATGTATGCACTTTTTAATTATTTTT belongs 8.73 ± 0.57; to “GTTATAGAAGCATTCACACACACACGGACATACACA [CACACA_site6801]”, 10 ± 0.3. Consider “TTTTTTTATAAAAATGAACACACACCGATATATATA [CACACA_site9161]”, for which the “gcPBM binding intensity (ln)” value was determined as 8.95 ± 0.3. Regarding “ATTGATCTTTATTGTTGTACATTAAACGTTAATTTT [XGTACX_site1788]”, the “gcPBM binding intensity (ln)” value was 8.95 ± 0.39. Then “TACCTATAAAAGTACACACACACACGGATATAAATA [CACACA_site6569]”, with 9.95 ± 0.19; and “ACTATAAATATATACACATGCGCACACACAAGTGGG [TGCATGCA_site432]”, with 9.54 ± 0.25. With “ATGGAAATTTTATCATGTACATATACCGTTGAATAA [XGTACX_site5420]”, the “gcPBM binding intensity (ln)” value is 8.68 ± 0.35. Take “AATAAAAAAATTAAAATTAAAAAATTAAAACTTAAA [CACACA_negctrl_site987]”: the “gcPBM binding intensity (ln)” value amounted to 8.2 ± 0.64. To “TATTATATAATTTTAACACACAAGAATATAAACTTT [CACACA_site1363]” belongs 8.62 ± 0.43; to “TAACAAAATGTAAATAAACACACATATATATATATA [CACACA_site8352]”, 9.72 ± 0.25. With “AACATTCTATGTTGCACACAAAGAGAAAAATTTATT [CACACA_site3995]”, the “gcPBM binding intensity (ln)” value came out at 8.98 ± 0.46.

On to “AAAAAGAAAAAACTTACACACATATATACCCCCATG [CACACA_site4463]”, for which the “gcPBM binding intensity (ln)” value came to 9.71 ± 0.014.

“TGAAGGAATACAGCTCGTACATGTGTAAAGAGATAA [XGTACX_site500]”: the “gcPBM binding intensity (ln)” value was determined as 9.09 ± 0.49. As to “TAATTTAAATGATGTAGTACATATAAATATATCTAA [XGTACX_site262]”, the “gcPBM binding intensity (ln)” value stood at 8.48 ± 0.38. For “TGAATTAACAAATAGACACACATATATATATATATA [CACACA_site3195]”, the “gcPBM binding intensity (ln)” value was determined as 9.9 ± 0.11.

With TTAAAAAATATATGCGTGCACTAATATTTCATATGC, the “gcPBM binding intensity (ln)” value is 8.89 ± 0.33. Then “ACCATTTGTACTTACGCACACATAAAATATATATAT [CACACA_site1545]”, with 9.2 ± 0.34; and “TACTATTTTTATAATACACACATATATTTGTGATAT [CACACA_site1775]”, with 9 ± 0.37.

“TGTGGCCCTGCGAGGTGGTCATCATGAATACGAAAA [XGTACX_site1526]”: the “gcPBM binding intensity (ln)” value worked out at 8.63 ± 0.52. As to TCAAAAATTTATATAGTGCAATATATATATAATGTA, the “gcPBM binding intensity (ln)” value came out at 8.54 ± 0.49.

Regarding “TTGTAATATATAAAAGTGCATATATGGTTCCATATA [GTGCAC_site9544]”, the “gcPBM binding intensity (ln)” value turned out to be 8.6 ± 0.47. In the case of “TAATTTATTGTACGTGCATGCTATTTTTTATTTTTA [TGCATGCA_site1059]”, the “gcPBM binding intensity (ln)” value was found to be 9.13 ± 0.49.

For the sequence “AACAAAAAAACAAACACACACACACCCATATATATA [CACACA_site3652]”, the “gcPBM binding intensity (ln)” value was found to be 10.03 ± 0.042. “ATATGTGAATAAAAATGTACGTGTTCTTTTTTTTTT [XGTACX_site320]”: the “gcPBM binding intensity (ln)” value turned out to be 8.71 ± 0.48. Then “TCATACATTTTCCTTGCACACATTTATAATTAATGT [CACACA_site614]”, with 9.39 ± 0.4; and “AAAAAAAAAAAAAAATGTACATATATATTTATATAT [XGTACX_site229]”, with 8.57 ± 0.37.

Take “TCAAAGGAATTTTTATGTACATATAAACTTTATTCT [XGTACX_site3432]”: the “gcPBM binding intensity (ln)” value was found to be 8.66 ± 0.47. As for “AACCCCAAGCCGTACTGTACATATATTTTTATTTTA [XGTACX_site142]”, the “gcPBM binding intensity (ln)” value stood at 9.11 ± 0.2. Regarding “AAAAGTTGTATTTGCACACATAAAAAAAAGATATTA [CACACA_site3840]”, the “gcPBM binding intensity (ln)” value was 8.98 ± 0.46. On to “AAATTCAAACAAATTACACACATTTTTTTTTAATTT [CACACA_site3596]”, for which the “gcPBM binding intensity (ln)” value stood at 8.91 ± 0.52.

For “AAATAAATTTGACCAGTGCAATAACTTTGTATACCT [GTGCAC_site9446]”, the “gcPBM binding intensity (ln)” value was 8.77 ± 0.44. For “TATAATATAAAAAAAAGTACACGAATTTTTTTTCAG [XGTACX_site6105]”, the “gcPBM binding intensity (ln)” value was found to be 8.36 ± 0.42. Turning to “ACAATATATTTTTGAGCATGCGCAAAAGAGAATGCA [TGCATGCA_site566]”, the “gcPBM binding intensity (ln)” value was 8.85 ± 0.42. As for “ATCCAAAAGAAAAATAGTACAGATATGAACAATATG [XGTACX_site6944]”, the “gcPBM binding intensity (ln)” value was 8.88 ± 0.45.
